First the molecules themselves.
T1: UNK ZnF1-3 (human, UniProt Q9C0B0 31-174)
T1 sequence: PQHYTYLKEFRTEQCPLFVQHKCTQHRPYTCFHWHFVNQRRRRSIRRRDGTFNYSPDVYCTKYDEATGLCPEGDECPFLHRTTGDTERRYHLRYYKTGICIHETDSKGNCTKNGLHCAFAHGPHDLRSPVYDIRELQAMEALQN

B1: chr16:94651144:94651145:+_ENSMUSG00000040785_ENSMUST00000117648|mus_hu|mus_mus_mus_hu_True|48_48 (ssRNA)
RNA: GGGAGUUCUACAGUCCGACGAUCAUUUUCUUGAAUCAAGUGGCGAAUAACAUAGUCCACUGCUUCAUUUAGAAAAUUUCUGCUAGAAAAGCAUGUUGUAUAGUCUUCUGUGCUCAAAACUUUCCAAGAAAGCAAUUCUUUGAGCAACAGAGGAUUGAGCAUCA
B2: chr2:47388980:47388981:-_ENSG00000143933_ENST00000272298|hu_hu|motif|central (ssRNA)
RNA: GGGAGUUCUACAGUCCGACGAUCUUCAUCUGUUAACUUCUCUCCAAGGUUUGUCAUCACAUGGCGAAGUUCUGCAGCACGGAUAUAGCCAUUGCCAUCCUUAUCAAACACACGGAAUGCUUCUCUAAUUUCUUCUUCACUGUCCAACAGAGGAUUGAGCAUCA
B3: chr1:163112212:163112213:-_ENSG00000143248_ENST00000313961|hu_hu|hu_hu_hu_mus_False|1_98 (ssRNA)
RNA: GGGAGUUCUACAGUCCGACGAUCUUUUAUUAUCAGUAAGCAUGAGUUACAUACUAGGCAAAGUAUUGGAUACAAUAAUCAGGAAACAAACACUAUUGGUCCAGAAUUUAAAACUUUAUGAGCGAAGUGCUGGCACAGGAUUUACAACAGAGGAUUGAGCAUCA
B4: chr5:177634160:177634161:+_ENSG00000197451_ENST00000358344|hu_hu|FALSE|FALSE (ssRNA)
RNA: GGGAGUUCUACAGUCCGACGAUCACUGACAGUAUGGAACUUUUUCUCCAGAACCUUCUUCACGGGUUCUUCUUCUUUAAAGGUGAUAAACACAAAACCUCGUCUUUUGUUCAACUUUGGAUCCAUUGGCAAUUCAAUGGCCUCCAACAGAGGAUUGAGCAUCA
B5: chr3:55808730:55808731:-_ENSMUSG00000027799_ENSMUST00000029374|mus_hu|FALSE|FALSE (ssRNA)
RNA: GGGAGUUCUACAGUCCGACGAUCUGAAGUUGUAUGGAUUUUGAAUUCUUUUUCUUCUAUUAUACUGGAUGUACAAGUUAAGUCUACGCUACCGGUCAUGUGAGCAAGCAAUCCAAGAUCAUCACUAACACCAAGAUGUACUUGCAACAGAGGAUUGAGCAUCA
B6: chr3:176767854:176767855:-_ENSG00000177565_ENST00000430069|hu_hu|hu_hu_hu_mus_False|78_108 (ssRNA)
RNA: GGGAGUUCUACAGUCCGACGAUCGACAUCCUUGUUGCUGGGCACGUCCUGCCCUCCUUCUCGUAUACAGUGUCUAAGCACGAGCUGCGUAGGGCCACUCGUGCUGUUCUCACUGAGGUUCCAGAUUCUUGCCGUGGAGUCUCCCAACAGAGGAUUGAGCAUCA
B7: 117847759_117847879_214_3pUTR_ENSMUSG00000017715_ENSMUST00000132676|mouse|control|control (ssRNA)
RNA: GGGAGUUCUACAGUCCGACGAUCGAGGAGGGAUGCUCAGCGACCAGACUACCUGUCAGACUUCCAGCUGCUACCCUGCGCUCACAUAAAGGUCCAGGAGGAUUAAUAACAGCUCAGCGCCCGGAGUCCUGUCAGACUGAUAGCCAACAGAGGAUUGAGCAUCA
B8: 25593832_25616512_97_3pUTR_ENSG00000170558_ENST00000399380|human|control|control (ssRNA)
RNA: GGGAGUUCUACAGUCCGACGAUCAUAUUGUACUUUUCUUUUUCCAUUGCAGUUGCUAAACUUCACUGAAAGGAAAACAUACAAUUCUGCUUGGUUCUUUAAUUUCUCAGUGAAGAUACACACAUAACGCCUUAAUAAAAACAUCAACAGAGGAUUGAGCAUCA
B9: chr8:117878989:117878990:-_ENSG00000164754_ENST00000297338|hu_hu|hu_hu_hu_mus_True|38_68 (ssRNA)
RNA: GGGAGUUCUACAGUCCGACGAUCCCAGAGGCCCUCGUUUACUGAGGACAAAAUGUGCGUAGAACAUUGUUCUGGCUUGCUAUGAAAUAAGAAGAAAACCUUGCUCUGGCGGGGAGCCGGGAGGGGUGGGUGGCCCGGGGAGGGCAACAGAGGAUUGAGCAUCA
B10: 115632485_115632605_2900_3pUTR_ENSG00000148158_ENST00000374232|human|control|control (ssRNA)
RNA: GGGAGUUCUACAGUCCGACGAUCUCUGAAGCAGCGCCUUAACACAGCUGUUUCAUUAAAAAUAAACAACAAAAAAACUACUGCUUAUUUGAGGCUCAGAUUCGUAGUUUUACAGGGAUGAGCCACAGAUGAAAGAACACAAACCAACAGAGGAUUGAGCAUCA
B11: 55018132_55019424_1508_CDS_ENSMUSG00000029777_ENSMUST00000003572|mouse|control|control (ssRNA)
RNA: GGGAGUUCUACAGUCCGACGAUCGAGAUACUCCAGCACUAGCUUUGCAUCCUUCUUGUACGCCUUGCCCACGGCGCCCUUGUUGGGCUCAAACUGUACAACGUUAACUGUUUUGGGUUCUUUCAGAGGUUUCUCAGCUACUAGCAACAGAGGAUUGAGCAUCA
B12: 15130537_15131120_5856_CDS_ENSMUSG00000046111_ENSMUST00000161132|mouse|control|control (ssRNA)
RNA: GGGAGUUCUACAGUCCGACGAUCAUCUGUGAUUUCAUAACUUAAGAAGCUUCCAGUAGAAACAGUUACUGAAGACAAUGGCUCCUGAGAAAUCUCUUGUGUUUCAGCCUCAUCGUCUGGCUUUCCAAGUGGACCCAGGUUUGUCAACAGAGGAUUGAGCAUCA
B13: chr20:57570089:57570090:+_ENSG00000101158_ENST00000344018|hu_hu|FALSE|FALSE (ssRNA)
RNA: GGGAGUUCUACAGUCCGACGAUCAAAAUUUACUUAUUACUUGUUCUUAGCAAAUUAAGACAAUUACAAUAAAACAUCAGCUAACUGGGUUCUUGUGAGAAAACUGAGGUCAGCUUGGAAAGGAGUUCCCCGAGUGGAGUUCCCCAACAGAGGAUUGAGCAUCA
B14: chr19:16212804:16212805:+_ENSG00000167460_ENST00000300933|hu_mus|hu_hu_hu_mus_False|8_108 (ssRNA)
RNA: GGGAGUUCUACAGUCCGACGAUCAACAAAUAUGCAAUGAAGGAAAGAUGUAACAUGGAACAGCAUUAAAGCUCAGUCAGAAGGCACAUGGGCAACAAUGAUCACCCCAGCAUUCUCGCUUGGAAUGUGCUUGAGAAAUCUGUUCAACAGAGGAUUGAGCAUCA

Some of the results follow.

This assay deals with T1, UNK ZnF1-3. The assay can be described thus: nsRBNS (natural sequence RNA bind-n-seq); RBNS binding buffer (assumed for nsRBNS): 25 mM Tris pH 7.5, 150 mM KCl, 3 mM MgCl2, 0.01% Triton X-100, 500 ug/ml BSA, 20 U/ml SUPERase-In, 4 C; UNK is unkempt and MSI1 is Musashi-1; names of the RNAs are library labels; protein concentration not given here; high values mean tight binding.
In turn, B1 registered a binding signal of 0.373 enrichment R.

As for B2, the binding signal is 0.864 enrichment R. Consider B3, for which the binding signal worked out at 1.41 enrichment R. Take B4: the binding signal was 0.397 enrichment R. On to B5, for which the binding signal stood at 0.759 enrichment R. B6: the binding signal stood at 0.431 enrichment R. In the case of B7 it was 1.48 enrichment R; in that of B8, 0.662 enrichment R. In the case of B9 it was 1.81 enrichment R; in that of B10, 1.61 enrichment R. B11 returned a binding signal of 0.781 enrichment R. The molecule B12 had a binding signal of 0.993 enrichment R. The molecule B13 had a binding signal of 1.02 enrichment R.

For the molecule B14, the binding signal came to 1.23 enrichment R.

For the origin of these results see publication PMC12136788.
